# Results from PubChem BioAssay AID602233 (National Center for Advancing Translational Sciences (NCATS), 2012).
# Among all 380,000 compounds or so, about 170 (0.045%) were called active. This list was built around the results that the source calls inconclusive (neither active nor inactive); the mix of calls is not that of the screen. Calls come from the whole dose curve; as a rule, active = well fitted inhibition curve with a large enough effect; inconclusive = small, poorly fitted or top-dose-only effect; inactive = no such curve, though single readings can be large or run the other way. Potencies of inconclusive entries are left out as doubtful fits.
# Target: Phosphoglycerate kinase, glycosomal (Trypanosoma brucei brucei) (UniProt P07378)
# Test: qHTS Assay to Find Inhibitors of Phosphoglycerate Kinase; note: nearly all actives have a fitted effect of over 60% in size
# Conditions: PGK/GAPDH coupled, Kinase-Glo luminescence, 60 min; series mostly up to 57.5 µM
# Source text: Several species of the Trypanosomatidae family of parasitic protozoans cause a spectrum of diseases throughout the tropical and subtropical world. Sleeping sickness, caused by two subspecies of Trypanosoma brucei, is endemic to areas of sub-Saharan Africa, while Chagas disease, a manifestation of Trypanosoma cruzi infection, is prevalent throughout Central and South America. In addition, many species of Leishmania are responsible for a range of cutaneous and visceral diseases, causing ulcers, destructive lesions and kalaazar, a lethal infection of the viscera. Collectively, these organisms infect 30 million people worldwide (~500 million live in endemic areas), and account for ~130,000 deaths annually. Given their debilitating and prevalent nature, trypanosomatid parasites impose a heavy medical, economic and social burden on entire populations, primarily in the developing world. The problem is further exacerbated by the fact that existing treatments have progressed little in the past 50 years, and current drugs show high toxicity and poor efficacy. […] Blood-stream stages of T. brucei are entirely dependent on glycolysis as a source of ATP, and the tricarboxylic acid cycle and oxidative phosphorylation are both repressed. Glycolysis in axenically cultured T. cruzi, representing the intracellular pathogenic stage, is also essential for these parasites. […] Previous studies have shown that the glycolytic enzyme, phosphoglycerate kinase (PGK), is a viable target for drugs to kill these parasites. […] NIH Molecular Libraries Probe Production Network [MLPCN] NIH Chemical Genomics Center [NCGC] MLPCN Grant: R03 MH093212 PI Name: Malcolm Walkinshaw, University of Edinburgh
# 3ul of substrate/PGK buffer (columns 1,2,5-48) are dispensed into Greiner white solid bottom 1536-well assay plates; columns 3-4 receive only TEA buffer as 0x PGK controls. Compounds are then transferred via Kalypsys pin tool equipped with 1536-pin array (10nl slotted pins, V&P Scientific, San Diego, CA). Following addition of compound, 1ul of GAPDH (100nM final concentration, all columns) is added to initiate the reaction (this upstream coupling enzyme is necessary for in-well production of PGK substrate, 1,3-bisphosphoglycerate (1,3-BPG), which is unstable and not commercially available). The plates are then incubated at room temperature for 60 minutes. Kinase-Glo Plus reagent is added (2ul) and plates incubated for 10 minutes, before being transferred to a ViewLux high-throughput CCD imager (PerkinElmer) wherein single end-point measurements of luminescence are acquired using a clear filter. All reagents are diluted in an assay buffer consisting of 100mM TEA (pH 7.6), 5mM MgCl2 and 0.01% Tween-20.
# Potency is the fitted concentration of half-maximal effect; tags give direction and shape of the fitted curve.
row,SMILES,Potency
1,COc1cc(C(=O)NCC(c2ccc(Cl)cc2)N2CCOCC2)cc(OC)c1OC (stereo not drawn),inactive
2,O=C(O)C1C2C=CC(CC2)C1C(=O)O (stereo not drawn),"inconclusive [inhibitor, partial curve, poor fit]"
3,CCOc1ccc(C2CC(=O)c3c([nH]c(C(=O)OCC4CCCCC4)c3C)C2)cc1 (stereo not drawn),inactive
4,CCCCCn1c(N2CCN(c3cccc(Cl)c3)CC2)nc2c1c(=O)[nH]c(=O)n2C,"inconclusive [inhibitor, partial curve, poor fit]"
5,O=C(CCCN1C(=O)/C(=C\c2ccco2)SC1=S)Nc1ccc(O)cc1C(=O)O,"inconclusive [inhibitor, partial curve, poor fit]"
6,O=c1cc(CSc2nc3ccccc3[nH]2)c2ccccc2[nH]1,inactive
7,CC1=NN(c2ccc(C(=O)O)c(N)c2)C(=O)C1,"inconclusive [inhibitor, single point]"
8,NCCCC[C@H]1NC(=O)[C@H](CCC(=O)O)NC(=O)c2cc([N+](=O)[O-])cc(I)c2OCC[C@@H](C(N)=O)NC1=O,"inconclusive [inhibitor, partial curve, poor fit]"
9,O=C(O)c1[nH]c2ccccc2c1C(c1cc(Cl)cc([N+](=O)[O-])c1O)c1c(C(=O)O)[nH]c2ccccc12,"inconclusive [inhibitor, single point]"
10,CC(C)C1N=C2c3ccccc3N=C(SCC(=O)c3ccc(O)c(O)c3)N2C1=O (stereo not drawn),"inconclusive [inhibitor, single point]"
11,O=C(Nc1ccccn1)c1ccc2c(c1)OCO2,"inconclusive [inhibitor, single point]"
12,CSc1nc(N)nc2c1ncn2CC(=O)Nc1ccc(C)c(C)c1,inactive
13,Nn1c(SCC(=O)NCCN2C(=O)CSC2=O)nnc1-c1ccc(OC(F)F)cc1,inactive
14,Cc1cccc(CN(CC(=O)N/N=C/c2ccco2)S(=O)(=O)c2ccc(Cl)cc2)c1,"inconclusive [inhibitor, partial curve, poor fit]"
15,CCCCC(=O)N1CCN(c2nc3ccc(Br)cc3s2)CC1,"inconclusive [inhibitor, partial curve, poor fit]"
16,CCOC(=O)c1c(/N=C/C2=C(O)CCCC2=O)sc(C)c1C,inactive
17,Cc1ccc(S(=O)(=O)c2nc(S(=O)(=O)c3ccccc3)sc2NCCCOC(C)C)cc1,inactive
18,COc1cccc(/C=C(\C#N)c2nc3ccc(C)cc3[nH]2)c1,"inconclusive [inhibitor, single point]"
19,COc1cc2c(ccc3cc(OC)c(OC)c(O)c32)cc1O,active: 11.2 µM
20,COc1ccccc1/C=C/C(=O)NCC(=O)N/N=C/c1ccccc1[N+](=O)[O-],inactive
21,O=C(O)c1cccc(-n2cccc2/C=C/[N+](=O)[O-])c1,"inconclusive [inhibitor, partial curve, poor fit]"
22,Cc1ccc2oc(C(=O)Nc3c(C(=O)c4ccc(C)c(F)c4)oc4ccccc34)cc(=O)c2c1,inactive
23,Cc1cc(NC(=O)c2cc(-c3ccccc3C)nc3ccccc23)no1,inactive

row,SMILES,Potency
1,CCOc1ccc(-n2c(SCC(=O)N3CCc4ccccc43)nnc2-c2c[nH]c3ccccc23)cc1,inactive
2,O=C(c1ccc2c3n(nc2c1)-c1ccccc1CO3)N1CCOCC1,"inconclusive [inhibitor, partial curve, poor fit]"
3,O=C(Nc1ccc2c(c1)OCO2)Nc1ccccc1F,"inconclusive [inhibitor, partial curve, poor fit]"
4,O=C(CCN1C(=O)/C(=C/c2ccco2)SC1=S)Nc1ccc(C(=O)O)c(O)c1,"inconclusive [inhibitor, partial curve]"
5,c1ccc2c(c1)COc1c3cc4c(cc3nn1-2)OCO4,"inconclusive [inhibitor, partial curve, poor fit]"
6,O=C(OCCC12CC3CC(CC(C3)C1)C2)c1ccc(NCc2cc(O)ccc2O)cc1,"inconclusive [inhibitor, partial curve]"
7,C[C@]12CC[C@@H]3c4ccc(O)cc4CC[C@H]3[C@@H]1CC[C@@H]2O,inactive
8,COC(=O)c1cc(NC(=O)c2c(Cl)nc3sccn23)cc(C(=O)OC)c1,"inconclusive [inhibitor, single point]"
9,Cc1ccc(C(=O)N2c3ccccc3CC2C)o1 (stereo not drawn),"inconclusive [inhibitor, partial curve, poor fit]"
10,COc1ccc(N/C=C2\CCc3ccccc3C2=O)cc1,"inconclusive [inhibitor, partial curve]"
11,COc1ccc(/C=C2\C(=O)N(c3c(Cl)cc(Cl)cc3Cl)N=C2NC(=O)c2cccc([N+](=O)[O-])c2)cc1,inactive
12,c1ccc(-c2noc(-c3ccc4ccccc4c3)n2)nc1,"inconclusive [inhibitor, partial curve, poor fit]"
13,O=C(Nn1c(-c2ccccc2)nc2ccccc2c1=O)c1cccs1,"inconclusive [inhibitor, single point]"
14,COc1ccccc1CNC(=O)c1ccc(Nc2nc3ccccc3n3nnnc23)cc1,inactive
15,Cc1occc1C(=O)Nc1ccc2c(c1)OCCO2,"inconclusive [inhibitor, partial curve, poor fit]"
16,O=c1cc2oc3cc(O)c(O)cc3c(-c3ccccc3O)c-2cc1O,"inconclusive [inhibitor, partial curve]"
17,Cc1nn(-c2ccccc2)c(Cl)c1/C=N/NC(=O)OC(C)(C)C,inactive
18,CC(=O)c1ccc(S(=O)(=O)Nc2cccc(-n3cnnn3)c2)cc1,"inconclusive [inhibitor, single point]"
19,O=C(O)c1cc(-c2ccco2)nc2ccccc12,"inconclusive [inhibitor, single point]"
20,Cc1ccc(C(=O)O/N=C(\N)c2ccccn2)cc1C,"inconclusive [inhibitor, single point]"
21,O=C(/C=C/c1ccc(Cl)cc1)NC(=S)Nc1ccc(C(=O)O)cc1,"inconclusive [inhibitor, partial curve, poor fit]"
22,CCc1ccc2c(c1)C(NC(C)=O)C(=O)N2CCN1CCOCC1 (stereo not drawn),"inconclusive [inhibitor, partial curve, poor fit]"
23,CCc1ccc(C(=O)COC(=O)c2cc([N+](=O)[O-])ccc2N2CCOCC2)cc1,inactive

row,SMILES,Potency
1,Cc1ccc2c(c1)C(N1CCCC1=O)CC(c1ccco1)N2 (stereo not drawn),"inconclusive [inhibitor, partial curve, poor fit]"
2,c1ccc(-c2noc(-c3cccnc3)n2)nc1,"inconclusive [inhibitor, partial curve, poor fit]"
3,Cc1ccc(-n2[nH]c(C)c(/C=N/Nc3ccc([N+](=O)[O-])cc3[N+](=O)[O-])c2=O)cc1C,"inconclusive [inhibitor, single point]"
4,O=C(O)C(Cc1ccccc1)N1C(=O)/C(=C/c2cccnc2)SC1=S (stereo not drawn),inactive
5,O=[N+]([O-])c1ccc2nc(SCc3cn4cc(Cl)ccc4n3)[nH]c2c1,"inconclusive [inhibitor, partial curve, poor fit]"
6,O=C(ONC(=O)C1CCCCC1C(=O)NOC(=O)c1ccccc1)c1ccccc1 (stereo not drawn),inactive
7,CCOc1cc(/C=N/NC(=O)c2ccc(-c3csc(Nc4ccc(C)cc4)n3)cc2)ccc1OCC(=O)O,active: 12.6 µM
8,O=C(OCC(=O)N1CCN(C(=O)c2ccco2)CC1)c1cc(-c2ccco2)nc2ccccc12,"inconclusive [inhibitor, single point]"
9,COc1ccc(-c2cc3c(nn2)-c2ccccc2C3=O)cc1,"inconclusive [inhibitor, partial curve, poor fit]"
10,COC(=O)c1ccc(NC(=S)N2CCN(CCO)CC2)cc1,"inconclusive [inhibitor, partial curve, poor fit]"
11,COc1ccccc1OCc1nnc(SCC(=O)NCc2ccco2)n1Cc1ccco1,"inconclusive [inhibitor, single point]"
12,O=C(O)CC(NC(=O)COc1ccc(Cl)cc1Cl)C(=O)O (stereo not drawn),inactive
13,CCNc1nc(NCC)n2c(SCC(=O)Nc3cccc(Cl)c3)nnc2n1,"inconclusive [inhibitor, single point]"
14,COc1cc(NC(=S)N2CCN(CCO)CC2)cc(OC)c1,"inconclusive [inhibitor, partial curve]"
15,O=C(N/N=C/c1ccco1)c1ccn[nH]1,inactive
16,O=C(CSc1ccc(F)cc1)Nc1ccc2c(c1)C(=O)NC2=O,inactive
17,O=[N+]([O-])c1cccc(/C=N/Nc2nccnc2Cl)c1,"inconclusive [inhibitor, partial curve, poor fit]"
18,CCOCCCNC1=C(Cl)C(=O)c2ccccc2C1=O,inactive
19,COc1ccccc1CNC(=O)C(C)Sc1ccsc1[N+](=O)[O-] (stereo not drawn),inactive
20,CC(C)=NNc1nc2c(c(=O)[nH]c(=O)n2C)n1CCCc1ccccc1,"inconclusive [inhibitor, partial curve, poor fit]"
21,Cc1cccc(NC(=O)COc2ccc(/C=C\c3[nH]c(=O)[nH]c(=O)c3[N+](=O)[O-])cc2)c1,"inconclusive [inhibitor, single point]"
22,COc1cc2c(cc1OC)C(C)N(C(=S)Nc1ccccc1)CC2 (stereo not drawn),"inconclusive [inhibitor, partial curve, poor fit]"
